The values that follow come from the supplement of paper PMC12217912.

Some of the results follow. Sequences were assembled here from the parent chain. Values near 0.05 are background.

B1: TEV protease; numbered along this chain (parent)
chain: MGESLFKGPRDYNPISSSICHLTNESDGHTTSLYGIGFGPFIITNKHLFRRNNGTLVVQSLHGVFKVKDTTTLQQHLVDGRDMIIIRMPKDFPPFPQKLKFREPQREERICLVTTNFQTKSMSSMVSDTSCTFPSGDGIFWKHWIQTKDGQCGSPLVSTRDGFIVGIHSASNFTNTNNYFTSVPKNFMELLTNQEAQQWVSGWRLNADSVLWGGHKVFMVKPEEPFQPVKEATQL

Variants of B1 are the subject of the experiment. Put plainly: raw area under fraction-flipped curve 0-4 h after induction (AUC4h, not background-subtracted), DNA-recorder readout of cleavage of the substrate (dimensionless); higher = more cleavage of the substrate by the protease variant. Conditions: temperature: 34 °C; time window: 0-4 h after rhamnose induction. How it is done: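 In vivo DNA recorder in E. coli TOP10(DE3) ΔrhaA at 34 °C. Each TEVp single-site mutant (parent TEVp 0) is paired with a single-site variant of the 7-mer TEVs (canonical ENLYFQ|S). The substrate sits between flexible linkers in a Bxb1-sfGFP-TEVs-SsrA fusion, so cleavage stabilises Bxb1 and speeds flipping of a recombination array, read by NGS. The value is the raw area under the fraction-flipped curve over 0-4 h after rhamnose induction (AUC4h), with ≥20 reads per time point. It is not background-subtracted; inactive controls average about 0.047.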
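Further: Bxb1 expression induced with 0.2% (w/v) L-rhamnose at OD600 near 0.5, cultures sampled hourly, flipped fraction per protease–substrate barcode pair counted by paired-end Illumina sequencing.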

With E223Y, the “area with substrate ENLAFQS” value was found to be 0.0699, the “area with substrate ENLCFQS” value is 0.0774, the “area with substrate ENLDFQS” value is 0.0638 and the “area with substrate ENLEFQS” value is 0.0619. Also, the “area with substrate ENLFFQS” value worked out at 0.0793, the “area with substrate ENLGFQS” value was determined as 0.0653, the “area with substrate ENLHFQS” value was 0.0726 and the “area with substrate ENLIFQS” value stood at 0.054. The “area with substrate ENLKFQS” value was determined as 0.0919, the “area with substrate ENLLFQS” value was determined as 0.081, the “area with substrate ENLMFQS” value was 0.0728 and the “area with substrate ENLNFQS” value is 0.0575. Moreover, the “area with substrate ENLPFQS” value stood at 0.0635, the “area with substrate ENLSFQS” value came out at 0.0644, the “area with substrate ENLVFQS” value amounted to 0.0812 and the “area with substrate ENLWFQS” value was 0.0931.
On to M188N, for which the “area with substrate ENLAFQS” value was found to be 0.0605, the “area with substrate ENLDFQS” value was determined as 0.0685, the “area with substrate ENLHFQS” value was 0.013 and the “area with substrate ENLIFQS” value was 0.0845. Further, the “area with substrate ENLLFQS” value was 0.0643, the “area with substrate ENLNFQS” value came out at 0.0703, the “area with substrate ENLPFQS” value worked out at 0.0778 and the “area with substrate ENLQFQS” value turned out to be 0.0613. In addition, the “area with substrate ENLSFQS” value was determined as 0.0699.
As to E189N, the “area with substrate ENLAFQS” value is 0.0543, the “area with substrate ENLDFQS” value amounted to 0.0509, the “area with substrate ENLEFQS” value was determined as 0.062 and the “area with substrate ENLFFQS” value worked out at 0.0729. In addition, the “area with substrate ENLGFQS” value came to 0.0626, the “area with substrate ENLHFQS” value amounted to 0.0626, the “area with substrate ENLIFQS” value turned out to be 0.0897 and the “area with substrate ENLKFQS” value worked out at 0.0841. In addition, the “area with substrate ENLNFQS” value is 0.0598, the “area with substrate ENLPFQS” value turned out to be 0.0673, the “area with substrate ENLQFQS” value is 0.077 and the “area with substrate ENLRFQS” value worked out at 0.077. Also, the “area with substrate ENLSFQS” value was 0.0698 and the “area with substrate ENLWFQS” value amounted to 0.0497.
Turning to E189G, the “area with substrate ENLAFQS” value is 0.0586, the “area with substrate ENLCFQS” value was found to be 0.0839, the “area with substrate ENLDFQS” value was found to be 0.103 and the “area with substrate ENLFFQS” value came to 0.0859. Also, the “area with substrate ENLIFQS” value was determined as 0.0583, the “area with substrate ENLKFQS” value came out at 0.0723, the “area with substrate ENLLFQS” value amounted to 0.0827 and the “area with substrate ENLNFQS” value amounted to 0.0438. The “area with substrate ENLPFQS” value stood at 0.0569, the “area with substrate ENLQFQS” value was determined as 0.0586, the “area with substrate ENLRFQS” value is 0.0764 and the “area with substrate ENLSFQS” value was 0.077. Besides, the “area with substrate ENLWFQS” value is 0.0589.
For E189T, the “area with substrate ENLAFQS” value is 0.0635, the “area with substrate ENLDFQS” value is 0.065, the “area with substrate ENLEFQS” value was determined as 0.0746 and the “area with substrate ENLFFQS” value turned out to be 0.112. The “area with substrate ENLGFQS” value stood at 0.0721, the “area with substrate ENLHFQS” value was found to be 0.0605, the “area with substrate ENLIFQS” value is 0.0857 and the “area with substrate ENLKFQS” value is 0.0767. The “area with substrate ENLLFQS” value came to 0.0653, the “area with substrate ENLNFQS” value was 0.0584, the “area with substrate ENLPFQS” value was 0.0586 and the “area with substrate ENLQFQS” value came to 0.0316. Besides, the “area with substrate ENLRFQS” value was determined as 0.0784, the “area with substrate ENLSFQS” value was found to be 0.0513 and the “area with substrate ENLWFQS” value was 0.0714.
Turning to N13H, the “area with substrate ENLCFQS” value was 0.0844, the “area with substrate ENLDFQS” value turned out to be 0.0602, the “area with substrate ENLEFQS” value turned out to be 0.0565 and the “area with substrate ENLGFQS” value amounted to 0.0734. The “area with substrate ENLHFQS” value is 0.0632, the “area with substrate ENLKFQS” value amounted to 0.0837, the “area with substrate ENLMFQS” value worked out at 0.0946 and the “area with substrate ENLNFQS” value was 0.0653. For the same variant, the “area with substrate ENLPFQS” value came to 0.058, the “area with substrate ENLQFQS” value was determined as 0.0612, the “area with substrate ENLRFQS” value worked out at 0.0802 and the “area with substrate ENLTFQS” value amounted to 0.089. Besides, the “area with substrate ENLVFQS” value was determined as 0.0784 and the “area with substrate ENLWFQS” value came to 0.0646.
